Starred links: 1 amine or outer side, 2 acyl side, 3 side chain; linkers in the order of their positions; H or OH if unused. Non-standard residues stand in square brackets, D forms with d. Residues, ends and D or L forms follow the SMILES beside them. *: point of attachment. Pro(3R,4S-CMe2) = CC1(C)[C@@H]2[C@@H](C(=O)O)NC[C@@H]21; X1 = O=S(=O)(CC1(N*)CCCCC1)c1ccccc1; X2 = O=C(C(=O)[*:2])C(CC1CC1)N[*:1]; Phg = N[C@H](C(=O)O)c1ccccc1; Tle = CC(C)(C)[C@H](N)C(=O)O; X4 = CS(=O)(=O)CC1(N*)CCCCC1; CO = O=C([*:1])[*:2]
target: Recombinant heterodimeric HCV NS3/NS4A protease (strain 1a) (Hepatitis C virus genotype 1a, UniProt P27958); test: Spectrophotometric assay for HCV serine protease inhibitory activity (chromogenic ester substrates); format: biochemical; conditions: Table 3, sulfone compounds; HCV serine protease; read-out: Ki* range

`CC(C)(C)[C@H](NC(=O)N[C@H](CS(=O)(=O)Cc1ccccc1)C(C)(C)C)C(=O)N1C[C@H]2[C@@H]([C@H]1C(=O)NC(CC1CC1)C(=O)C(N)=O)C2(C)C` (stereo partly shown) [Compound 169] and `CC(C)(C)[C@H](NC(=O)N[C@H](CS(=O)(=O)Cc1ccccc1)C(C)(C)C)C(=O)N1C[C@H]2[C@@H]([C@H]1C(=O)NC(CC1CCC1)C(=O)C(N)=O)C2(C)C` (stereo partly shown) [Compound 170] cannot be ordered by Ki: under 75 nM for the first, under 75 nM for the second.

`CC(C)(C)[C@H](NC(=O)NC1(CS(=O)(=O)c2ccccc2)CCCC1)C(=O)N1C[C@H]2[C@@H]([C@H]1C(=O)NC(CC1CC1)C(=O)C(N)=O)C2(C)C` (stereo partly shown) [Compound 171] and `CC(C)(C)[C@H](NC(=O)NC1(CS(=O)(=O)c2ccccc2)CCCCC1)C(=O)N1C[C@H]2[C@@H]([C@H]1C(=O)NC(CC1CCC1)C(=O)C(N)=O)C2(C)C` (stereo partly shown) [Compound 214] cannot be ordered by Ki: under 75 nM for the first, under 75 nM for the second.

First: C#CCCCC(NC(=O)[C@@H]1[C@@H]2[C@H](CN1C(=O)[C@@H](NC(=O)NC1(CS(=O)(=O)c3ccccc3)CCCCC1)C(C)(C)C)C2(C)C)C(=O)C(=O)NCC=C (stereo partly shown) [Compound 172]
Second: C#CCCC(NC(=O)[C@@H]1[C@@H]2[C@H](CN1C(=O)[C@@H](NC(=O)NC1(CS(=O)(=O)c3ccccc3)CCCCC1)C(C)(C)C)C2(C)C)C(=O)C(=O)NCC=C (stereo partly shown) [Compound 181]
The Ki of the first is higher: 75 to 250 nM for the first, under 75 nM for the second.

`C#CCCNC(=O)C(=O)C(CCCC)NC(=O)[C@@H]1[C@@H]2[C@H](CN1C(=O)[C@@H](NC(=O)NC1(CS(=O)(=O)c3ccccc3)CCCCC1)C(C)(C)C)C2(C)C` (stereo partly shown) [Compound 173] and `C#CCCNC(=O)C(=O)C(CCC)NC(=O)[C@@H]1[C@@H]2[C@H](CN1C(=O)[C@@H](NC(=O)NC1(CS(=O)(=O)c3ccccc3)CCCCC1)C(C)(C)C)C2(C)C` (stereo partly shown) [Compound 189] cannot be ordered by Ki: under 75 nM for the first, under 75 nM for the second.

`CC(C)(C)[C@H](NC(=O)N[C@H](CS(=O)(=O)C(C)(C)C)C(C)(C)C)C(=O)N1C[C@H]2[C@@H]([C@H]1C(=O)NC(CC1CC1)C(=O)C(N)=O)C2(C)C` (stereo partly shown) [Compound 174] and `CC(C)(C)[C@H](NC(=O)N[C@H](CS(=O)(=O)C(C)(C)C)C(C)(C)C)C(=O)N1C[C@H]2[C@@H]([C@H]1C(=O)NC(CC1CCC1)C(=O)C(N)=O)C2(C)C` (stereo partly shown) [Compound 176] cannot be ordered by Ki: under 75 nM for the first, under 75 nM for the second.

`CC(C)(C)[C@H](NC(=O)N[C@H](CS(=O)(=O)C(C)(C)C)C1CCCCC1)C(=O)N1C[C@H]2[C@@H]([C@H]1C(=O)NC(CC1CC1)C(=O)C(N)=O)C2(C)C` (stereo partly shown) [Compound 175] and `CC(C)(C)[C@H](NC(=O)N[C@H](CS(=O)(=O)C(C)(C)C)C1CCCCC1)C(=O)N1C[C@H]2[C@@H]([C@H]1C(=O)NC(CC1CCC1)C(=O)C(N)=O)C2(C)C` (stereo partly shown) [Compound 177] cannot be ordered by Ki: under 75 nM for the first, under 75 nM for the second.

`C#CCCC(NC(=O)[C@@H]1[C@@H]2[C@H](CN1C(=O)[C@@H](NC(=O)NC1(CS(=O)(=O)c3ccccc3)CCCCC1)C(C)(C)C)C2(C)C)C(=O)C(=O)NCC#C` (stereo partly shown) [Compound 179] and `C#CCCNC(=O)C(=O)C(CCC#C)NC(=O)[C@@H]1[C@@H]2[C@H](CN1C(=O)[C@@H](NC(=O)NC1(CS(=O)(=O)c3ccccc3)CCCCC1)C(C)(C)C)C2(C)C` (stereo partly shown) [Compound 182] cannot be ordered by Ki: under 75 nM for the first, under 75 nM for the second.

`C=CCNC(=O)C(=O)C(CCC(F)(F)F)NC(=O)[C@@H]1[C@@H]2[C@H](CN1C(=O)[C@@H](NC(=O)NC1(CS(=O)(=O)c3ccccc3)CCCCC1)C(C)(C)C)C2(C)C` (stereo partly shown) [Compound 180] and `C=CCNC(=O)C(=O)C(CC1CC1)NC(=O)[C@@H]1[C@@H]2[C@H](CN1C(=O)[C@@H](NC(=O)NC1(CS(=O)(=O)c3ccccc3)CCCCC1)C(C)(C)C)C2(C)C` (stereo partly shown) [Compound 200] cannot be ordered by Ki: under 75 nM for the first, under 75 nM for the second.

`C#CCCNC(=O)C(=O)C(CCC#C)NC(=O)[C@@H]1[C@@H]2[C@H](CN1C(=O)[C@@H](NC(=O)NC1(CS(C)(=O)=O)CCCCC1)C(C)(C)C)C2(C)C` (stereo partly shown) [Compound 183] and `C#CCCCNC(=O)C(=O)C(CCC#C)NC(=O)[C@@H]1[C@@H]2[C@H](CN1C(=O)[C@@H](NC(=O)NC1(CS(C)(=O)=O)CCCCC1)C(C)(C)C)C2(C)C` (stereo partly shown) [Compound 209] cannot be ordered by Ki: under 75 nM for the first, under 75 nM for the second.

`C#CCCC(NC(=O)[C@@H]1[C@@H]2[C@H](CN1C(=O)[C@@H](NC(=O)NC1(CS(C)(=O)=O)CCCCC1)C(C)(C)C)C2(C)C)C(=O)C(=O)NCC#C` (stereo partly shown) [Compound 184] and `C#CCCC(NC(=O)[C@@H]1[C@@H]2[C@H](CN1C(=O)[C@@H](NC(=O)NC1(CS(C)(=O)=O)CCCCC1)C(C)(C)C)C2(C)C)C(=O)C(=O)NCC=C` (stereo partly shown) [Compound 185] cannot be ordered by Ki: under 75 nM for the first, under 75 nM for the second.

`CC(C)(C)[C@H](NC(=O)NC1(CCS(=O)(=O)c2ccccc2)CCCCC1)C(=O)N1C[C@H]2[C@@H]([C@H]1C(=O)NC(CC1CC1)C(=O)C(N)=O)C2(C)C` (stereo partly shown) [Compound 186] and `CC(C)(C)[C@H](NC(=O)NC1(CS(=O)(=O)Cc2ccccc2)CCCCC1)C(=O)N1C[C@H]2[C@@H]([C@H]1C(=O)NC(CC1CC1)C(=O)C(N)=O)C2(C)C` (stereo partly shown) [Compound 190] cannot be ordered by Ki: under 75 nM for the first, under 75 nM for the second.

`CN(C)C(=O)[C@@H](NC(=O)CNC(=O)C(=O)C(CC1CC1)NC(=O)[C@@H]1[C@@H]2[C@H](CN1C(=O)[C@@H](NC(=O)NC1(CS(C)(=O)=O)CCCCC1)C(C)(C)C)C2(C)C)c1ccccc1` (stereo partly drawn) [Compound 187] ({X4-CO}-[Tle][Pro(3R,4S-CMe2)][X2]G[Phg]-NMe2) and `CN(C)C(=O)[C@@H](NC(=O)CNC(=O)C(=O)C(CC1CC1)NC(=O)[C@@H]1[C@@H]2[C@H](CN1C(=O)[C@@H](NC(=O)NC1(CS(=O)(=O)c3ccccc3)CCCCC1)C(C)(C)C)C2(C)C)c1ccccc1` (stereo partly drawn) [Compound 188] ({X1-CO}-[Tle][Pro(3R,4S-CMe2)][X2]G[Phg]-NMe2) cannot be ordered by Ki: under 75 nM for the first, under 75 nM for the second.

`C#CCCC(NC(=O)[C@@H]1[C@@H]2[C@H](CN1C(=O)[C@@H](NC(=O)NC1(CS(=O)(=O)Cc3ccccc3)CCCCC1)C(C)(C)C)C2(C)C)C(=O)C(=O)NCC=C` (stereo partly shown) [Compound 191] and `C#CCCNC(=O)C(=O)C(CCC#C)NC(=O)[C@@H]1[C@@H]2[C@H](CN1C(=O)[C@@H](NC(=O)NC1(CS(=O)(=O)Cc3ccccc3)CCCCC1)C(C)(C)C)C2(C)C` (stereo partly shown) [Compound 192] cannot be ordered by Ki: under 75 nM for the first, under 75 nM for the second.

`CC(C)CC(C)(CS(=O)(=O)C(C)(C)C)NC(=O)N[C@H](C(=O)N1C[C@H]2[C@@H]([C@H]1C(=O)NC(CC1CCC1)C(=O)C(N)=O)C2(C)C)C(C)(C)C` (stereo partly shown) [Compound 193] and `CC(C)CC(C)(CS(=O)(=O)C(C)(C)C)NC(=O)N[C@H](C(=O)N1C[C@H]2[C@@H]([C@H]1C(=O)NC(CC1CC1)C(=O)C(N)=O)C2(C)C)C(C)(C)C` (stereo partly shown) [Compound 194] cannot be ordered by Ki: under 75 nM for the first, under 75 nM for the second.

`CC(C)CC(C)(CS(=O)(=O)Cc1ccccc1)NC(=O)N[C@H](C(=O)N1C[C@H]2[C@@H]([C@H]1C(=O)NC(CC1CC1)C(=O)C(N)=O)C2(C)C)C(C)(C)C` (stereo partly shown) [Compound 195] and `CC(C)CC(C)(CS(=O)(=O)Cc1ccccc1)NC(=O)N[C@H](C(=O)N1C[C@H]2[C@@H]([C@H]1C(=O)NC(CC1CCC1)C(=O)C(N)=O)C2(C)C)C(C)(C)C` (stereo partly shown) [Compound 196] cannot be ordered by Ki: under 75 nM for the first, under 75 nM for the second.

`CC(C)(C)[C@H](NC(=O)NC1(CCS(C)(=O)=O)CCCCC1)C(=O)N1C[C@H]2[C@@H]([C@H]1C(=O)NC(CC1CC1)C(=O)C(N)=O)C2(C)C` (stereo partly shown) [Compound 197] and `CCS(=O)(=O)CC1(NC(=O)N[C@H](C(=O)N2C[C@H]3[C@@H]([C@H]2C(=O)NC(CC2CC2)C(=O)C(N)=O)C3(C)C)C(C)(C)C)CCCCC1` (stereo partly shown) [Compound 202] cannot be ordered by Ki: under 75 nM for the first, under 75 nM for the second.

`CC(C)(C)[C@H](NC(=O)NC1(CS(=O)(=O)c2cccc(OCc3ccccc3)c2)CCCCC1)C(=O)N1C[C@H]2[C@@H]([C@H]1C(=O)NC(CC1CC1)C(=O)C(N)=O)C2(C)C` (stereo partly shown) [Compound 198] and `CC(C)(C)[C@H](NC(=O)NC1(CS(=O)(=O)c2cccc(O)c2)CCCCC1)C(=O)N1C[C@H]2[C@@H]([C@H]1C(=O)NC(CC1CC1)C(=O)C(N)=O)C2(C)C` (stereo partly shown) [Compound 199] cannot be ordered by Ki: under 75 nM for the first, under 75 nM for the second.

`C=CCNC(=O)C(=O)C(CC1CC1)NC(=O)[C@@H]1[C@@H]2[C@H](CN1C(=O)[C@@H](NC(=O)NC1(CS(C)(=O)=O)CCCCC1)C(C)(C)C)C2(C)C` (stereo partly shown) [Compound 201] and `C=CCNC(=O)C(=O)C(CC1CCC1)NC(=O)[C@@H]1[C@@H]2[C@H](CN1C(=O)[C@@H](NC(=O)NC1(CS(C)(=O)=O)CCCCC1)C(C)(C)C)C2(C)C` (stereo partly shown) [Compound 215] cannot be ordered by Ki: under 75 nM for the first, under 75 nM for the second.

`CC(C)(C)[C@H](NC(=O)NC1(CS(=O)(=O)C(C)(C)C)CCCCC1)C(=O)N1C[C@H]2[C@@H]([C@H]1C(=O)NC(CC1CC1)C(=O)C(N)=O)C2(C)C` (stereo partly shown) [Compound 203] and `C=CCNC(=O)C(=O)C(CC1CC1)NC(=O)[C@@H]1[C@@H]2[C@H](CN1C(=O)[C@@H](NC(=O)NC1(CS(=O)(=O)C(C)(C)C)CCCCC1)C(C)(C)C)C2(C)C` (stereo partly shown) [Compound 205] cannot be ordered by Ki: under 75 nM for the first, under 75 nM for the second.

`C=CCNC(=O)C(=O)C(CC1CC1)NC(=O)[C@@H]1[C@@H]2[C@H](CN1C(=O)[C@@H](NC(=O)NC1(CS(=O)(=O)CC)CCCCC1)C(C)(C)C)C2(C)C` (stereo partly shown) [Compound 204] and `C#CCCC(NC(=O)[C@@H]1[C@@H]2[C@H](CN1C(=O)[C@@H](NC(=O)NC1(CS(=O)(=O)CC)CCCCC1)C(C)(C)C)C2(C)C)C(=O)C(=O)NCC=C` (stereo partly shown) [Compound 206] cannot be ordered by Ki: under 75 nM for the first, under 75 nM for the second.

`CC(C)(C)[C@H](NC(=O)NC1(CS(C)(=O)=O)CCCCC1)C(=O)N1C[C@H]2[C@@H]([C@H]1C(=O)NC(CC1CC1)C(=O)C(N)=O)C21CC1` (stereo partly shown) [Compound 207] and `CC(C)(C)[C@H](NC(=O)NC1(CS(C)(=O)=O)CCCCC1)C(=O)N1C[C@H]2[C@@H]([C@H]1C(=O)NC(CC1CC1)C(=O)C(N)=O)C21CCCC1` (stereo partly shown) [Compound 213] cannot be ordered by Ki: under 75 nM for the first, under 75 nM for the second.

`C#CCCC(NC(=O)[C@@H]1[C@@H]2[C@H](CN1C(=O)[C@@H](NC(=O)NC1(CS(=O)(=O)C(C)(C)C)CCCCC1)C(C)(C)C)C2(C)C)C(=O)C(=O)NCC=C` (stereo partly shown) [Compound 210] and `C=CCNC(=O)C(=O)C(CC1CCC1)NC(=O)[C@@H]1[C@@H]2[C@H](CN1C(=O)[C@@H](NC(=O)NC1(CS(=O)(=O)C(C)(C)C)CCCCC1)C(C)(C)C)C2(C)C` (stereo partly shown) [Compound 216] cannot be ordered by Ki: under 75 nM for the first, under 75 nM for the second.

`C=CCNC(=O)C(=O)C(CCC)NC(=O)[C@@H]1[C@@H]2[C@H](CN1C(=O)[C@@H](NC(=O)NC1(CS(C)(=O)=O)CCCCC1)C(C)(C)C)C2(C)C` (stereo partly shown) [Compound 211] and `CC(C)(C)[C@H](NC(=O)NC1(CS(C)(=O)=O)CCCCC1)C(=O)N1C[C@H]2[C@@H]([C@H]1C(=O)NC(CC1CCC1)C(=O)C(N)=O)C2(C)C` (stereo partly shown) [Compound 212] cannot be ordered by Ki: under 75 nM for the first, under 75 nM for the second.
